# Read-outs that look alike come from different tables or passages of the source.
# System: cultured bloodstream T. brucei (strain 427)
# [1] = Supplementary Table 1, compound 0.5 mM, percentage of controls in the absence of compound, mean ± SD (n=3) or SE (n=2)
Compound,T. brucei Alamar Blue [1],T. brucei Alamar Blue
"COc1cc2c(cc1OC)C(C)=NCC2 [compound 664, 6,7‐dimethoxy‐1‐methyl‐3,4‐dihydroisoquinoline]",48.8 ± 12 percentage of controls,–
"CC1(C)Cc2cccc(CO)c2O1 [compound 434, (2,2‐dimethyl‐2,3‐dihydro‐1‐benzofuran‐7‐yl)methanol]",30 ± 6.2 percentage of controls,–
"Cc1cc(C(N)=S)n(C)n1 [compound 227, 1,3‐dimethyl‐1H‐pyrazole‐5‐carbothioamide]",98.4 ± 13.7 percentage of controls,–
"Nc1ccc2oc3c(c2c1)CCCC3 [compound 516, 6,7,8,9‐tetrahydrodibenzo[b,d]furan‐2‐amine]",36.8 ± 1.1 percentage of controls,–
"NCc1ccc(CN2CCCCC2)cc1 [compound 658, [4‐(piperidinomethyl)phenyl]methylamine]",46.6 ± 16.8 percentage of controls,–
"N#CCOc1ccc(C(F)(F)F)cn1 [compound 634, 2‐{[5‐(trifluoromethyl)‐2‐pyridyl]oxy}acetonitrile]",80.4 ± 15 percentage of controls,–
"COc1c(C(=O)O)csc1Cl [compound 575, 5‐chloro‐4‐methoxythiophene‐3‐carboxylic acid]",84.1 ± 4.5 percentage of controls,–
"COC(=O)c1cccc(CN)c1.Cl [compound 632, 3‐Aminomethylbenzoic acid methyl ester hydrochloride]",57.9 ± 14.5 percentage of controls,–
"Cn1nc(-c2ccccc2)cc1CO [compound 524, (1‐methyl‐3‐phenyl‐1H‐pyrazol‐5‐yl)methanol]",85.9 ± 17.5 percentage of controls,–
"OCc1cccc(Cn2ccnc2)c1 [compound 527, [3‐(1H‐imidazol‐1‐ylmethyl)phenyl]methanol]",78.7 ± 10.9 percentage of controls,–
"CC(C)(N)CN1CCCC1 [compound 142, 2‐methyl‐1‐(1‐pyrrolidinyl)‐2‐propanamine]",70.6 ± 6.5 percentage of controls,–
"COC(=O)c1scc(C)c1Cl [compound 551, methyl 3‐chloro‐4‐methylthiophene‐2‐carboxylate]",108 ± 11.9 percentage of controls,–
"OCc1ccc(Cn2ccnc2)cc1 [compound 528, [4‐(1H‐imidazol‐1‐ylmethyl)phenyl]methanol]",78 ± 16 percentage of controls,–
(Piperidino‐3‐pyridinyl)methanol [compound 569],31.1 ± 5.4 percentage of controls,–
"Cc1nn(-c2ccccc2)c(C)c1CO [compound 636, (3,5‐dimethyl‐1‐phenyl‐1H‐pyrazol‐4‐yl)methanol]",70.4 ± 15.2 percentage of controls,–
"CC(=O)Nc1ccc2c(c1)CCCC2=O [compound 644, N1‐(5‐oxo‐5,6,7,8‐tetrahydronaphthalen‐2‐yl)acetamide]",104.2 ± 9.2 percentage of controls,–
"COC(=O)c1sccc1O [compound 247, methyl 3‐hydroxythiophene‐2‐carboxylate]",88.6 ± 3.7 percentage of controls,–
"CC1=NNC(=O)CC1 [compound 31, 6‐methyl‐2,3,4,5‐tetrahydropyridazin‐3‐one]",110.1 ± 12.1 percentage of controls,–
"Cn1c(C(=O)O)cc2sccc21 [compound 464, 4‐methyl‐4H‐thieno[3,2‐b]pyrrole‐5‐carboxylic acid]",82 ± 5.9 percentage of controls,–

Compound,T. brucei Alamar Blue [1],T. brucei Alamar Blue
"OCC1COc2ccccc2O1 (centres unmarked) [compound 319, 2,3‐dihydro‐1,4‐benzodioxin‐2‐ylmethanol]",77.2 ± 5.4 percentage of controls,–
"CN1C2CCC1CC(=NO)C2.Cl [compound 552, 8‐methyl‐8‐azabicyclo[3.2.1]octan‐3‐one oxime hydrochloride]",94.3 ± 14.4 percentage of controls,–
"FC(F)(F)C1=NCCNC=C1 [compound 295, 5‐(trifluoromethyl)‐2,3‐dihydro‐1H‐1,4‐diazepine]",94.6 ± 14.4 percentage of controls,–
"Cc1nn(C)c(C)c1CN [compound 128, (1,3,5‐trimethyl‐1H‐pyrazol‐4‐yl)methylamine]",87 ± 9.9 percentage of controls,–
"CC(=O)c1cc(C)ccc1O [compound 184, 1‐(2‐hydroxy‐5‐methylphenyl)ethan‐1‐one]",96.1 ± 4.8 percentage of controls,–
"CC1(C(=O)O)CC2C=CC1C2 (centres unmarked) [compound 205, 2‐methylbicyclo[2.2.1]hept‐5‐ene‐2‐carboxylic acid]",91.3 ± 1.8 percentage of controls,–
"COC(=O)c1cc(C)[nH]c1C [compound 214, methyl 2,5‐dimethyl‐1H‐pyrrole‐3‐carboxylate]",35.1 ± 4.4 percentage of controls,–
"Cc1oc(-c2ccccc2)nc1CCO [compound 643, 2‐(5‐methyl‐2‐phenyl‐1,3‐oxazol‐4‐yl)ethan‐1‐ol]",28.1 ± 8.8 percentage of controls,–
"CC(=O)c1ccc2c(c1)OCCO2 [compound 430, 1‐(2,3‐dihydro‐1,4‐benzodioxin‐6‐yl)ethan‐1‐one]",90.9 ± 7.7 percentage of controls,–
"CC(=O)Nc1ccc2c(c1)CCC2=O [compound 535, N1‐(1‐oxo‐2,3‐dihydro‐1H‐inden‐5‐yl)acetamide]",97.5 ± 6.6 percentage of controls,–
"CN(C)C1(CN)CCSC1 (centres unmarked) [compound 268, 3‐(aminomethyl)‐N,N‐dimethyltetrahydro‐3‐thiophenamine]",57.8 ± 19.5 percentage of controls,–
"NC(=S)c1cccc2c1OCCO2 [compound 592, 2,3‐dihydro‐1,4‐benzodioxine‐5‐carbothioamide]",67.7 ± 17 percentage of controls,–
"Cc1cc(CN)n(C)n1 [compound 73, (1,3‐dimethyl‐1H‐pyrazol‐5‐yl)methylamine]",80 ± 15.5 percentage of controls,–
"CN(C)CCOc1ccccc1CO [compound 593, {2‐[2‐(dimethylamino)ethoxy]phenyl}methanol]",103.6 ± 18.7 percentage of controls,–
"Cl.c1ccc2c(c1)CCNC2 [compound 343, 1,2,3,4‐tetrahydroisoquinoline hydrochloride]",67 ± 10.6 percentage of controls,–
"CC12CCC(O)(CC1)CC2=O [compound 222, 4‐hydroxy‐1‐methylbicyclo[2.2.2]octan‐2‐one]",106.5 ± 8.6 percentage of controls,–
"Cc1ccc(C)c(C(O)C(=O)O)c1 (centres unmarked) [compound 454, 2‐(2,5‐dimethylphenyl)‐2‐hydroxyacetic acid]",98.7 ± 11.9 percentage of controls,–
"Cn1nc(CO)cc1-c1cccs1 [compound 586, (1‐methyl‐5‐thien‐2‐yl‐1H‐pyrazol‐3‐yl)methanol]",71.4 ± 15.6 percentage of controls,–
"Cc1nc(-c2ccccc2)ncc1CO [compound 623, (4‐methyl‐2‐phenyl‐5‐pyrimidinyl)methanol]",61.8 ± 14.4 percentage of controls,–

Compound,T. brucei Alamar Blue [1],T. brucei Alamar Blue
"Cc1nc(-c2ccc(CO)cc2)cs1 [compound 667, [4‐(2‐methyl‐1,3‐thiazol‐4‐yl)phenyl]methanol]",41.7 ± 12.6 percentage of controls,–
"CN1N=C(C(F)(F)F)CC1=O [compound 315, 1‐methyl‐3‐(trifluoromethyl)‐4,5‐dihydro‐1H‐pyrazol‐5‐one]",103.3 ± 15.9 percentage of controls,–
"CC1(C)Cc2cccc(C(=O)O)c2O1 [compound 564, 2,2‐dimethyl‐2,3‐dihydro‐1‐benzofuran‐7‐carboxylic acid]",108.5 ± 16.1 percentage of controls,–
"Cn1nc(C(C)(C)C)cc1N [compound 216, 3‐(tert‐butyl)‐1‐methyl‐1H‐pyrazol‐5‐amine]",97.5 ± 10.1 percentage of controls,–
"Cl.Cl.NCCc1c[nH]cn1 [compound 475, 2‐(1H‐imidazol‐4‐yl)ethylamine dihydrochloride]",–,118.7 ± 4.4
"Cc1c(CO)cnn1-c1ccccc1 [compound 523, (5‐methyl‐1‐phenyl‐1H‐pyrazol‐4‐yl)methanol]",64.9 ± 10.9 percentage of controls,–
"Cc1cc(C(=O)O)c2cc(F)ccc2n1 [compound 660, 6‐fluoro‐2‐methyl‐4‐quinolinecarboxylic acid]",115.1 ± 0.7 percentage of controls,–
"OCc1ccc2c(c1)OCCCO2 [compound 453, 3,4‐dihydro‐2H‐1,5‐benzodioxepin‐7‐ylmethanol]",111.4 ± 1.5 percentage of controls,–
"Cn1nc(O)cc1C(F)(F)F [compound 316, 1‐methyl‐5‐(trifluoromethyl)‐1H‐pyrazol‐3‐ol]",91.7 ± 8.2 percentage of controls,–
"ON=C1CCCc2ccccc21 [compound 279, 1,2,3,4‐tetrahydronaphthalen‐1‐one oxime]",18.8 ± 5.8 percentage of controls,–
"CC(=O)Nc1cc(C)ccc1O [compound 303, N1‐(2‐hydroxy‐5‐methylphenyl)acetamide]",82.9 ± 18.1 percentage of controls,–
"Cn1nc(CO)cc1-c1ccccc1 [compound 525, (1‐methyl‐5‐phenyl‐1H‐pyrazol‐3‐yl)methanol]",58 ± 13.5 percentage of controls,–
"CC(=O)c1ccc(-n2ccnc2)cc1 [compound 503, 1‐[4‐(1H‐imidazol‐1‐yl)phenyl]‐1‐ethanone]",60.7 ± 7.5 percentage of controls,–
"CC(=O)c1sc(C)nc1C [compound 226, 1‐(2,4‐dimethyl‐1,3‐thiazol‐5‐yl)ethan‐1‐one]",96.5 ± 10.9 percentage of controls,–
"CN1CCc2c(sc(N)c2C#N)C1 [compound 581, 2‐amino‐6‐methyl‐4,5,6,7‐tetrahydrothieno[2,3‐c]pyridine‐3‐carbonitrile]",42.5 ± 18.5 percentage of controls,–
"Cl.NCc1ccc2c(c1)CCO2 [compound 496, 2,3‐dihydrobenzo[b]furan‐5‐ylmethylamine hydrochloride]",75.4 ± 7.3 percentage of controls,–
"O=C1COc2cc(O)ccc21 [compound 182, 6‐hydroxy‐2,3‐dihydrobenzo[b]furan‐3‐one]",56.2 ± 7.7 percentage of controls,–
"NCc1ccc2c(c1)OCCO2 [compound 306, 2,3‐dihydro‐1,4‐benzodioxin‐6‐ylmethylamine]",29.2 ± 8 percentage of controls,–
